Measured values: PMC4336329 (PLoS ONE, 2015)
The campaign covered roughly 310,000 compounds. About 2,200 (0.71%) showed an effect of 50% or more. Effects have a minus sign here. This is one part of the list.

Molecular target: human ether-à-go-go-related gene (hERG) potassium channel (human, UniProt Q12809)
Assay: primary screen, population patch clamp on CHO cells stably expressing hERG

Sequence of human ether-à-go-go-related gene (hERG) potassium channel (Q12809 whole entry, looked up): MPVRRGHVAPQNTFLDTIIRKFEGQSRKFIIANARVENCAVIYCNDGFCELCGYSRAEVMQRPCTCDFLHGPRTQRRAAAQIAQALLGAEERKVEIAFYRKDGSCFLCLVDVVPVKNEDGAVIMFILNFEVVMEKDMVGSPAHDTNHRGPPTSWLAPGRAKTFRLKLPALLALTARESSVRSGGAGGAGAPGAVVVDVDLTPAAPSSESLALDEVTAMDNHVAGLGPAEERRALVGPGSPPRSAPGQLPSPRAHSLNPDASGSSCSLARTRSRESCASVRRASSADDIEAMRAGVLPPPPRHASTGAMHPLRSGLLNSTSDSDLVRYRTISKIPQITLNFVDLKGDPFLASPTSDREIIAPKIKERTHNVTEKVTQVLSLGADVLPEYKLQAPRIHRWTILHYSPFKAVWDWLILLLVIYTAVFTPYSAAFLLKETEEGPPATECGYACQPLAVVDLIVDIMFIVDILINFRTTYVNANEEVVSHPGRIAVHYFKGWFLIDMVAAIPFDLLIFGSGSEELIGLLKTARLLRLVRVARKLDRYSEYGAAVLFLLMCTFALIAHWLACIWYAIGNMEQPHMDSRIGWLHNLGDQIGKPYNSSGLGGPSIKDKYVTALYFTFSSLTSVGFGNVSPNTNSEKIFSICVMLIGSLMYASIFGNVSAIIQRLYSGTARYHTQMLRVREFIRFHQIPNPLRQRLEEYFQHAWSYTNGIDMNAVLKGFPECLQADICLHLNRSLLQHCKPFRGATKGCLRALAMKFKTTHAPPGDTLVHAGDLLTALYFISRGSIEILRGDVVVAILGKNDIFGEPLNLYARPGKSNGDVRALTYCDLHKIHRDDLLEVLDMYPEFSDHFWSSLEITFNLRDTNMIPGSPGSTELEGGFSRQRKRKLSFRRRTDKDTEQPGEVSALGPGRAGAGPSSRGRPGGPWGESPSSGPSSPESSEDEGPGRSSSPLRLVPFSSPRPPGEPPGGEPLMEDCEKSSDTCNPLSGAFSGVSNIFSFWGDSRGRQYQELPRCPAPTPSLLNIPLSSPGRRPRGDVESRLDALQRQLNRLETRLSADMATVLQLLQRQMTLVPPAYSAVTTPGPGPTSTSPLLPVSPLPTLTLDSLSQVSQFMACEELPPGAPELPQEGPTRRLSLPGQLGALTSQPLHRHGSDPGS

| Structure (SMILES) | hERG current change (%, negative = inhibition) at 1uM [%] |
| --- | --- |
| Cc1c(NS(=O)(=O)c2ccc(Br)cc2)c(=O)n(-c2ccccc2)n1C | 7.34 |
| CCOc1ccc(N(CC(=O)Nc2ccccc2C(=O)N2CCOCC2)S(=O)(=O)c2ccc(F)cc2)cc1 | -1.78 |
| COc1ccc(S(=O)(=O)NNC(=O)c2ccc([N+](=O)[O-])cc2)cc1 | 10.8 |
| CC1=CCC2C(=O)N(c3ccc(S(N)(=O)=O)cc3)C(=O)C2C1 (stereo not drawn) | 14 |
| COc1ccc(C(=O)C[n+]2cc(Br)cc3ccccc32)cc1[N+](=O)[O-].[Br-] | -36.1 |
| Cc1cc(C)nc(Nc2cc([N+](=O)[O-])ccc2C)n1.Cl | 11.9 |
| O=C(COc1ccccc1)N1CCN(C(=O)c2ccc([N+](=O)[O-])cc2)CC1 | -19 |
| CCOC(=O)Cc1nn(CCc2ccccn2)c(=O)c2ccccc12 | 0.196 |
| COc1ccc(CCNC(=O)C2CCCN2C(=O)Nc2ccc(F)cc2)cc1OC (stereo not drawn) | 14.6 |
| CN1CCN(c2nc(N3CCN(CCO)CC3)nc3ccccc23)CC1.Cl | 14.6 |
| O=C1NC2(CCCCC2)C(=O)N1Cc1ccc([N+](=O)[O-])cc1 | 0.04 |
| O=C(NCCc1ccc(F)cc1)Nc1ccccc1Cl | 14.4 |
| COC(=O)CSC(=S)N1C(C)CCCC1C (stereo not drawn) | 10.5 |
| O=C(/C=C/c1cccc(F)c1)N(c1ccccn1)C1CCCCC1 | 6.98 |
| CCCc1c(-c2ccc(O)cc2)nn(-c2ccc(O)cc2)c1-c1ccc(O)cc1 | 19 |
| CC(C)(C)c1ccc(C(=O)NNC(=S)NC(=O)c2cccnc2)cc1 | 16.8 |
| Cc1nn2c(=O)c(NC(=O)c3ccc(Cl)cc3)cnc2s1 | -0.746 |
| COc1cc(C(=S)N2CCOCC2)ccc1OC(=O)c1cc([N+](=O)[O-])c(C)c([N+](=O)[O-])c1 | 27.6 |
| CC(C)N(Cc1ccccc1)C(=O)CN1C(=O)NC2(CCCC2)C1=O | 4.36 |
| COc1cccc(CNC(=O)CCCNC(=O)c2ccc(Cl)cc2)c1 | 11.1 |
| O=[N+]([O-])c1ccc(N2CCN(C(=S)NCc3ccc(Cl)cc3)CC2)cc1 | 12.9 |
| O=C(NCc1ccccc1)NC1CCS(=O)(=O)C1 (stereo not drawn) | 16.7 |
| CCn1cc(CN2CCC(C(=O)Nc3ccc(Oc4ccccc4)nc3)CC2)cn1 | -6.94 |
| Cc1nc(C(=O)O)sc1C1(C)CC(c2cccc([N+](=O)[O-])c2)=NO1 (stereo not drawn) | 5.65 |
| O=C(Nc1nncs1)c1cccc(S(=O)(=O)N2CCc3ccccc32)c1 | 1.35 |
| Cc1ccc(NC(=O)c2ccc3ncsc3c2)cc1S(=O)(=O)N(C)C | 3.88 |
| COc1cc(/C=N/OCC(=O)NC23CC4CC(CC(C4)C2)C3)ccc1OCc1ccccc1 | 8.1 |

| Structure (SMILES) | hERG current change (%, negative = inhibition) at 1uM [%] |
| --- | --- |
| COc1ccc(CCNC(=O)C2CCN(Cc3nc(-c4cccc(Cl)c4)oc3C)CC2)cc1OC | -80.9 |
| CCCN1CCN(C(=O)Cn2nc(CC)n3c(cc4sccc43)c2=O)CC1 | -1.76 |
| CCn1cc(C(=O)NC2CC(C)(C)Cc3c2cnn3-c2cccc(F)c2)cn1 (stereo not drawn) | 0.858 |
| CCSc1nnc(NC(=O)c2ccc(F)c(S(=O)(=O)N3CCOCC3)c2)s1 | 9.15 |
| CC(=O)Nc1ccc2c(c1)nc(CCN1CCN(C)CC1)n2C | -3.17 |
| O=C(Nc1ccc(NC(=O)c2ccccc2O)cc1)Nc1ccc(F)cc1F | 19.5 |
| COc1cc2c(c(OC)c1OC)-c1ccc(OC)c(=O)cc1[C@@H](NC(C)=O)CC2 | 11 |
| CCOC(=O)N1CCN(C(=O)CNC(=O)Cc2ccc(Cl)cc2)CC1 | -0.255 |
| CC(c1ccco1)N(C(=O)C12CC3(C)CC(C)(CC(C)(C3)C1)C2)c1ccccn1 (stereo not drawn) | 19 |
| Cn1ncc(N=Cc2ccccc2[N+](=O)[O-])c1C(N)=O | 12.6 |
| COc1ccc(N(CC(=O)NCCc2ccccc2)C(=O)CCC(=O)Nc2nccs2)c(OC)c1 | 7.34 |
| CCCCOC(=O)CSc1nc2c(c(=O)[nH]c(=O)n2C)n1C/C=C(\C)Cl | -0.742 |
| CC(=O)c1cccc(NC(=O)CC2S/C(=N/N=C3CCCCCC3)NC2=O)c1 (stereo not drawn) | 12.4 |
| CC(=O)c1ccc(NC(=O)CSc2n[nH]c(-c3cccnc3)n2)cc1 | 14.1 |
| CCN(c1cccc(C)c1)S(=O)(=O)c1csc(C(N)=O)c1 | 10.6 |
| O=C(O)CN1C(=O)c2ccc(Oc3cccc4c3C(=O)N(CC(=O)O)C4=O)cc2C1=O | 9.7 |
| Cc1nnc(SCc2cccc([N+](=O)[O-])c2)o1 | 16.3 |
| O=C(O)c1cccc(NC(=O)c2ccc3c(c2)C(=O)N(CC2CCCO2)C3=O)c1 (stereo not drawn) | 8.86 |
| O=c1[nH]c(=O)c2ccccc2[nH]1 | 12.9 |
| CC(C)(C)OC(=O)NCCc1nnc(SCc2ccccc2Cl)o1 | -4.46 |
| CC(C)C(=O)c1cc2c(cc1NC(=O)c1ccccc1)OCCO2 | 12.6 |
| O=C(NCc1ccccc1)N1CCN(c2ccc(Cl)c(Cl)c2)CC1 | 13.6 |
| Cc1ccc(Cc2nnc3n(-c4cccc(C)c4)nc(C(=O)c4ccccc4)n3c2=O)cc1 | 7.57 |
| O=C(Nc1nc2ccc(S(=O)(=O)N3CCCC3)cc2s1)c1ccco1 | 15 |
| COC(=O)c1c(C)[nH]c(C(=O)OCC(=O)N(CC(C)C)c2c(N)n(Cc3ccccc3)c(=O)[nH]c2=O)c1C | -12.9 |
| O=C(CSc1ccccc1C(=O)N1CCCCC1)NCC1CCCCC1 | 5.8 |
| O=C(O)C(=O)O.Oc1ccccc1CNCCCN1CCOCC1 | 13.9 |
